# Experimental data as given in the BET-seq Pho4 binding data (Le et al. 2018).
# This is one part of the list. These are noisy estimates, calculated here from bound and input reads.
# Target: T1, Pho4 (S. cerevisiae) (UniProt P07270)
# T1 sequence: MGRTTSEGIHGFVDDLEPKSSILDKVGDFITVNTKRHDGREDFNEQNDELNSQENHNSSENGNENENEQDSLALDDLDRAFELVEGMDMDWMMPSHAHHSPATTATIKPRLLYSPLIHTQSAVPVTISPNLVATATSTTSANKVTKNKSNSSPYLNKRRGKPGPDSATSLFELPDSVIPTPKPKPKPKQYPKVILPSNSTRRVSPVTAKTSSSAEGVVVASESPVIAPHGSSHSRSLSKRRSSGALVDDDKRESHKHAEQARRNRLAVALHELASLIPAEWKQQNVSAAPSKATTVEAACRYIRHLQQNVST
# Experiment: relative binding free energy (BET-seq); higher = weaker binding
# Details: reference: library average
row,Sequence,relative binding free energy
1,TGTGTCACGTGGAGAG,0.09 kcal/mol
2,GCGTTCACGTGTTGTG,0.37 kcal/mol
3,TTTTTCACGTGGTTAC,0.25 kcal/mol
4,ATAGGCACGTGTATTC,-0.01 kcal/mol
5,TTTGTCACGTGTTATA,0.06 kcal/mol
6,TTTAGCACGTGGGCCG,-0.12 kcal/mol
7,TGCGTCACGTGGTGTT,-0.05 kcal/mol
8,AATCTCACGTGTAGTT,0.22 kcal/mol
9,ATGGGCACGTGGGTAC,-0.26 kcal/mol
10,GGGGCCACGTGAGGTT,0.21 kcal/mol
11,TTTACCACGTGCGGGG,0.03 kcal/mol
12,GTGTGCACGTGGGAAC,-0.11 kcal/mol
13,CTGTTCACGTGGCGAT,0.31 kcal/mol
14,TTTTTCACGTGACGGA,0.34 kcal/mol
15,AGGTCCACGTGGATTT,0.06 kcal/mol
16,AAAGGCACGTGTGGGG,-0.09 kcal/mol
17,TTACTCACGTGTGTGA,0.1 kcal/mol
18,GGGCTCACGTGGTGGG,0.35 kcal/mol
19,AGAGGCACGTGGCGAG,-0.35 kcal/mol
20,TTATTCACGTGGCAGT,0.25 kcal/mol
21,CTAGGCACGTGGTGGA,-0.16 kcal/mol
22,GTGGGCACGTGTACTT,-0.03 kcal/mol
23,TTGAGCACGTGCTGGT,-0.12 kcal/mol
24,TTGTTCACGTGGTCAC,0.4 kcal/mol
25,GACGGCACGTGAGGTG,0.16 kcal/mol
26,GGTTCCACGTGTGGTG,-0.1 kcal/mol

row,Sequence,relative binding free energy
1,TTTCTCACGTGGGATA,0.13 kcal/mol
2,AGTTTCACGTGGAAGA,0.34 kcal/mol
3,TTTGTCACGTGACGTT,0.12 kcal/mol
4,GATTTCACGTGGGTTC,0.41 kcal/mol
5,AATTTCACGTGTGTTC,0.28 kcal/mol
6,TTTCGCACGTGTGGTG,-0.11 kcal/mol
7,ACGTACACGTGGGGGC,-0.15 kcal/mol
8,GCTATCACGTGGGGCT,0.05 kcal/mol
9,AGTTGCACGTGTGCGT,-0.07 kcal/mol
10,ATTAACACGTGTACGG,0.07 kcal/mol
11,TTGCGCACGTGAGTTA,0.03 kcal/mol
12,AATAGCACGTGTTATT,-0.04 kcal/mol
13,AGGCTCACGTGTGTTT,0.13 kcal/mol
14,TTCGTCACGTGCGTGG,0.11 kcal/mol
15,ATGTGCACGTGACGTG,0.07 kcal/mol
16,GTGGCCACGTGGTATA,-0.08 kcal/mol
17,AAAATCACGTGTGGTA,0.15 kcal/mol
18,TATAGCACGTGGGATT,-0.08 kcal/mol
19,TATATCACGTGTGCTA,0.08 kcal/mol
20,ATTCTCACGTGTGGGG,0.2 kcal/mol
21,TCTCGCACGTGTAGTG,-0.01 kcal/mol
22,ATGGTCACGTGGAATT,0.31 kcal/mol
23,GGTTGCACGTGTAGGC,0.09 kcal/mol
24,GAGCTCACGTGGTGGT,0.09 kcal/mol
25,AGTGGCACGTGCGAGT,-0.15 kcal/mol
26,TTGCACACGTGGAGGG,-0.14 kcal/mol

row,Sequence,relative binding free energy
1,TTGGTCACGTGAGTTT,0.27 kcal/mol
2,AGGGGCACGTGGACGT,-0.12 kcal/mol
3,GTGCGCACGTGGCAGT,-0.21 kcal/mol
4,CGTGTCACGTGTTACG,0.12 kcal/mol
5,TGTAGCACGTGTGCGC,-0.2 kcal/mol
6,AAATACACGTGGGGTA,-0.13 kcal/mol
7,GTGCACACGTGTGGCG,0.07 kcal/mol
8,AGGTACACGTGGCTGA,0 kcal/mol
9,CGTTACACGTGGGTAT,0.05 kcal/mol
10,GTAAACACGTGTGTAA,0.12 kcal/mol
11,TGAGCCACGTGGGGTT,-0.22 kcal/mol
12,AGAGTCACGTGGGGTT,-0.02 kcal/mol
13,ATTCGCACGTGTGTGC,-0.13 kcal/mol
14,AGCGGCACGTGTATGG,-0.01 kcal/mol
15,CTGAGCACGTGTGATA,0.17 kcal/mol
16,GCGGTCACGTGGTTCT,0.08 kcal/mol
17,GTGATCACGTGGGCTT,0.05 kcal/mol
18,ACCGGCACGTGTTTAT,0.23 kcal/mol
19,TCCGGCACGTGTTGTG,0.02 kcal/mol
20,TCGTTCACGTGTAAAG,0.34 kcal/mol
21,TTTCACACGTGGGCTT,-0.05 kcal/mol
22,CTTGTCACGTGGTAAA,0.03 kcal/mol
23,CATAGCACGTGTAGTG,0.01 kcal/mol
24,TGCAGCACGTGTGGCT,-0.15 kcal/mol
25,AATAGCACGTGGGCGG,-0.25 kcal/mol
26,ATCGGCACGTGGTTGG,0.01 kcal/mol

row,Sequence,relative binding free energy
1,CAGTGCACGTGTGTTA,-0.06 kcal/mol
2,GTTCTCACGTGTGTCT,0.23 kcal/mol
3,TTTATCACGTGAGGCT,0.4 kcal/mol
4,ATGGTCACGTGTATCT,0.11 kcal/mol
5,ACTTGCACGTGGCGTG,-0.03 kcal/mol
6,TGTTGCACGTGTCATA,-0.09 kcal/mol
7,GTATGCACGTGCCTGG,0.03 kcal/mol
8,CGGTGCACGTGGTGGA,-0.11 kcal/mol
9,GCTGACACGTGAGTGG,0.31 kcal/mol
10,TGGGTCACGTGTTTGA,0.07 kcal/mol
11,AGTAACACGTGGTCAG,-0.05 kcal/mol
12,TCGGGCACGTGGGGCG,-0.26 kcal/mol
13,ATCGGCACGTGCGTGG,-0.14 kcal/mol
14,TTTAACACGTGTGCGG,0.06 kcal/mol
15,TAACTCACGTGTGTAA,0.31 kcal/mol
16,TGCGACACGTGGGGTA,-0.25 kcal/mol
17,TATTTCACGTGAGTAA,0.31 kcal/mol
18,TAGGGCACGTGGACTT,-0.04 kcal/mol
19,GTTGACACGTGAAGCG,0.32 kcal/mol
20,AGGTGCACGTGCGTGT,-0.11 kcal/mol
21,GGAGCCACGTGGTTAG,-0.02 kcal/mol
22,CTTATCACGTGTGTAT,0.2 kcal/mol
23,TATTTCACGTGGGTTA,0.11 kcal/mol
24,TTAGACACGTGCAGGG,-0.07 kcal/mol
25,GGGATCACGTGGAGGG,0.11 kcal/mol
26,AAGAGCACGTGGATTG,-0.05 kcal/mol

row,Sequence,relative binding free energy
1,CGCGTCACGTGGGTAG,-0.14 kcal/mol
2,AAGGGCACGTGATAAG,0 kcal/mol
3,TATGGCACGTGCTCGT,-0.26 kcal/mol
4,AGCTTCACGTGTGTTA,0.23 kcal/mol
5,CTTGGCACGTGGCGCG,-0.2 kcal/mol
6,CGGTACACGTGATTAT,0.32 kcal/mol
7,ACGAGCACGTGAGGTG,0.21 kcal/mol
8,GGCGGCACGTGTAGAT,0.29 kcal/mol
9,ATTGTCACGTGGAACG,0.18 kcal/mol
10,AAATTCACGTGGTAGT,0.21 kcal/mol
11,TCGTGCACGTGCTCGG,-0.06 kcal/mol
12,AGATGCACGTGATAGT,0.12 kcal/mol
13,TGACGCACGTGGCTGG,-0.2 kcal/mol
14,CGTGGCACGTGGCCGG,-0.26 kcal/mol
15,TGTTGCACGTGAGAAG,0.17 kcal/mol
16,GTTATCACGTGTGGTG,0.19 kcal/mol
17,CTGTGCACGTGAAGGG,0.23 kcal/mol
18,AGTGGCACGTGGTACA,-0.25 kcal/mol
19,GTAGGCACGTGTACTT,0.05 kcal/mol
20,ATTAGCACGTGTGGTT,0.06 kcal/mol
21,TTTTGCACGTGATCTA,-0.09 kcal/mol
22,TGCGGCACGTGGATGT,-0.15 kcal/mol
23,AACGGCACGTGTTTGG,-0.08 kcal/mol
24,AGTTACACGTGGTGAG,0.17 kcal/mol
25,CGAAACACGTGTGTGG,-0.03 kcal/mol
26,GGGTTCACGTGAAAAG,0.39 kcal/mol

row,Sequence,relative binding free energy
1,ATAGTCACGTGGACGT,-0.03 kcal/mol
2,TTACTCACGTGGGTGG,0.07 kcal/mol
3,AGTGTCACGTGATGGG,0.24 kcal/mol
4,GTCTGCACGTGAAATT,0.48 kcal/mol
5,TGGTTCACGTGAATTG,0.46 kcal/mol
6,TAGCTCACGTGAGTTA,0.4 kcal/mol
7,TGACTCACGTGTTGGG,0.14 kcal/mol
8,TGGCGCACGTGATAGT,0.06 kcal/mol
9,GATTCCACGTGGGGGC,0.11 kcal/mol
10,GTGGTCACGTGGCGCT,0.16 kcal/mol
11,CAATACACGTGTAGGG,0.3 kcal/mol
12,GCGTTCACGTGTTGAT,0.35 kcal/mol
13,TACTGCACGTGAGTTG,0.23 kcal/mol
14,TGTGGCACGTGATTCG,0.02 kcal/mol
15,TTGTCCACGTGTTGCG,0.21 kcal/mol
16,TCTATCACGTGTGTAT,0.13 kcal/mol
17,TGGATCACGTGTCGCG,0.2 kcal/mol
18,ATAAGCACGTGGAGAA,0.11 kcal/mol
19,AATTACACGTGAGGGC,0.27 kcal/mol
20,GGGGGCACGTGTTTCC,-0.01 kcal/mol
21,CTTGGCACGTGGGAGT,-0.21 kcal/mol
22,TGTTCCACGTGGGATT,-0.03 kcal/mol
23,TGGAGCACGTGGAAGT,-0.04 kcal/mol
24,TGAAGCACGTGGGGGC,-0.33 kcal/mol
25,GTGGTCACGTGAGTGG,0.35 kcal/mol
26,TTTTTCACGTGGTTGG,0.25 kcal/mol

row,Sequence,relative binding free energy
1,ATGGGCACGTGAGGCG,0.1 kcal/mol
2,ATGTCCACGTGGGGGT,-0.2 kcal/mol
3,TTTGTCACGTGGATCG,0.09 kcal/mol
4,TATCTCACGTGTTGGA,0.19 kcal/mol
5,CGTGGCACGTGTGTAC,-0.06 kcal/mol
6,TCGTACACGTGGTCGT,0.04 kcal/mol
7,GTAGGCACGTGGATAT,-0.14 kcal/mol
8,CTTGCCACGTGGGGAT,-0.18 kcal/mol
9,GAGGGCACGTGGGGGT,-0.12 kcal/mol
10,TGGGGCACGTGCTGGT,-0.18 kcal/mol
11,GGTTGCACGTGCGGTA,-0.11 kcal/mol
12,GGCTTCACGTGTGGCG,0.3 kcal/mol
13,CGTTCCACGTGGGGGC,-0.02 kcal/mol
14,TATCGCACGTGATTTT,-0.02 kcal/mol
15,TCAGTCACGTGTGTGT,0.09 kcal/mol
16,GGGTCCACGTGGTAAT,0.11 kcal/mol
17,TAAGTCACGTGTTGAT,0.11 kcal/mol
18,CTGGTCACGTGTGGGT,0.18 kcal/mol
19,ATGGACACGTGATGTG,0.17 kcal/mol
20,GTTTGCACGTGCGTTA,0.02 kcal/mol
21,TTGGTCACGTGAGTCT,0.31 kcal/mol
22,ATAAGCACGTGGTGCT,-0.24 kcal/mol
23,GGTAGCACGTGTATAG,0.04 kcal/mol
24,GATAGCACGTGTTGGG,-0.04 kcal/mol
25,GTAGTCACGTGAGCTG,0.33 kcal/mol
26,GTAGTCACGTGGTCGT,0.03 kcal/mol

row,Sequence,relative binding free energy
1,ATTAGCACGTGGAGAG,-0.09 kcal/mol
2,TAGGGCACGTGGCTGT,-0.05 kcal/mol
3,GCGTGCACGTGGGCGG,-0.11 kcal/mol
4,GTATTCACGTGAGTTA,0.42 kcal/mol
5,TCTTGCACGTGTATTT,0.04 kcal/mol
6,GGGGACACGTGACGAG,0.21 kcal/mol
7,GGAGGCACGTGTGTAA,-0.09 kcal/mol
8,GGTTTCACGTGTGGAT,0.3 kcal/mol
9,ATCATCACGTGGAGGT,0.12 kcal/mol
10,TCTGACACGTGTTTGG,0.15 kcal/mol
11,TGGGGCACGTGTTTGG,-0.09 kcal/mol
12,TGTACCACGTGATGGT,0.01 kcal/mol
13,AGATGCACGTGTTCTT,-0.14 kcal/mol
14,CTACACACGTGTGGGT,0.1 kcal/mol
15,TGCATCACGTGGGTTA,0.04 kcal/mol
16,TAGCTCACGTGGGGTA,-0.07 kcal/mol
17,AGATCCACGTGTTTTT,0.09 kcal/mol
18,ATTAGCACGTGTCTTT,0.08 kcal/mol
19,GTGTCCACGTGGGCAG,-0.07 kcal/mol
20,TTCTTCACGTGGGCGT,0.07 kcal/mol
21,TTTTCCACGTGAGTTG,0.28 kcal/mol
22,TGAGTCACGTGTTGCA,-0.01 kcal/mol
23,TAGAACACGTGTTATT,0.01 kcal/mol
24,TTGGTCACGTGATGCT,0.18 kcal/mol
25,TTGGTCACGTGTCATA,0.06 kcal/mol
26,GCGGTCACGTGCTGGT,-0.06 kcal/mol

row,Sequence,relative binding free energy
1,ATGGTCACGTGTGGAT,0.13 kcal/mol
2,ATAGGCACGTGTCAGT,-0.01 kcal/mol
3,GAGGTCACGTGTATAA,0.18 kcal/mol
4,GGGTGCACGTGTTAAT,0.08 kcal/mol
5,ATAGACACGTGATGTT,0.03 kcal/mol
6,TTGAACACGTGTGGGT,0.13 kcal/mol
7,TTTAACACGTGTAGAG,0.17 kcal/mol
8,AATGGCACGTGGGACG,-0.16 kcal/mol
9,GGTTCCACGTGCGGGG,0.05 kcal/mol
10,AGGGGCACGTGGGATG,-0.17 kcal/mol
11,CTGTGCACGTGAGATG,0.09 kcal/mol
12,GTTGTCACGTGGGTAC,0.01 kcal/mol
13,TAAGTCACGTGGAATG,0.15 kcal/mol
14,GTTTCCACGTGTTTGC,0.17 kcal/mol
15,TGTAGCACGTGTAGAG,-0.07 kcal/mol
16,TTCTTCACGTGAATAT,0.53 kcal/mol
17,CATGACACGTGGGGGA,-0.13 kcal/mol
18,GTTATCACGTGTGAAG,0.28 kcal/mol
19,TACTTCACGTGGCGTT,0.11 kcal/mol
20,ATGTTCACGTGCTGGG,0.18 kcal/mol
21,AGTATCACGTGTCTTT,0.24 kcal/mol
22,GTCGTCACGTGACGGG,0.24 kcal/mol
